Reference: PubChem BioAssay AID881 (National Center for Advancing Translational Sciences (NCATS), 2007)
In all, about 110,000 compounds went through this assay and about 610 (0.55%) were called active. Inconclusive results, whose numbers are uncertain, are shown with a selection of clear calls. Calls follow the shape of the dose curve; as a rule, active = well fitted inhibition curve with a large enough effect; inconclusive = small, poorly fitted or top-dose-only effect; inactive = no such curve, though single readings can be large or run the other way. Potencies of inconclusive entries are doubtful fits and often do not repeat.

Target: Polyunsaturated fatty acid lipoxygenase ALOX15B (Homo sapiens) (UniProt O15296)
Assay: qHTS Assay for Inhibitors of 15-hLO-2 (15-human lipoxygenase 2); also: nearly all actives have a fitted effect of over 60% in size
Conditions: purified 15hLO-2, xylenol orange hydroperoxide absorbance; series mostly up to 57.1 µM
Summary of the method: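 Purified human 15hLO-2 (50 nM final) preincubated with compounds 15 min at room temperature in 25 mM Hepes pH 7.5, 0.01% Triton X-100, then 45 uM arachidonic acid added for 90 min; hydroperoxide detected via ferrous/xylenol orange, 573/405 nm absorbance ratio.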
Potency is read from the fitted curve at half-maximal effect; tags tell the direction and shape of the fitted curve.

UniProt O15296, sequence (O15296 whole entry, looked up): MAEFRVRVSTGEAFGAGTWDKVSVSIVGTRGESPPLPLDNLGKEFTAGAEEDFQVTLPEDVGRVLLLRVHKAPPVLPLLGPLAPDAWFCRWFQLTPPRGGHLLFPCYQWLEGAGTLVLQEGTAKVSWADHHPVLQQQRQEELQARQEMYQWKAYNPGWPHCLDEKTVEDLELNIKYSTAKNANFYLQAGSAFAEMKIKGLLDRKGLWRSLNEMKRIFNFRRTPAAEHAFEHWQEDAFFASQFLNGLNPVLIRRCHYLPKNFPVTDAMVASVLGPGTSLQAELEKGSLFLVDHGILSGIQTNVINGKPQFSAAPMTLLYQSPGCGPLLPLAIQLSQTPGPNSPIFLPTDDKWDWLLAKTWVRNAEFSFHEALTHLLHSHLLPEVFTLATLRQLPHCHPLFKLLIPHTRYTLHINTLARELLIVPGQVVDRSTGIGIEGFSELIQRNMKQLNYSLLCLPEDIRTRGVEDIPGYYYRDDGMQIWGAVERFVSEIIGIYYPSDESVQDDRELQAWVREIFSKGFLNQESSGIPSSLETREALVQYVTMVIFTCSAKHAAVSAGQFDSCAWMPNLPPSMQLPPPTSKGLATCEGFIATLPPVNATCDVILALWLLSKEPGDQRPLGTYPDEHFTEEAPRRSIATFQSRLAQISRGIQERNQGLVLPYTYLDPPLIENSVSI

Compound | Potency
COc1ccc(OC)c(Nc2nc(-c3sc(NC(=O)CC(C)C)nc3C)cs2)c1 | inconclusive: 3.98 µM [inhibitor, partial curve]
CC(C)(C)OC(=O)N[C@@H](Cc1ccccc1)c1nnc(S(=O)(=O)Cc2ccccc2)o1 | inconclusive: 12.6 µM [inhibitor, partial curve]
O=C1c2cccc3cccc(c23)C(=O)N1CC1CCN(CC(O)COc2ccc3ccccc3c2)CC1 (stereo not drawn) | inconclusive: 1.26 µM [inhibitor, full curve]
COc1ccc(-c2nn3c(-c4ccco4)nnc3s2)cc1OC | inactive
Cc1ccc(NC(=O)CCC(=O)NNC(=O)COc2cccc3ccccc23)c(C)c1 | inconclusive: 31.6 µM [inhibitor, single point]
CC(=O)n1c2ccccc2c2nc(NC(C)C)sc21 | inconclusive: 15.8 µM [inhibitor, partial curve]
CCOC(=O)c1[nH]c(C)c(C(=O)NC2CCCC2)c1C | inactive
Cc1ccc(-n2c(=O)c3sccc3n(CC(=O)NCc3ccco3)c2=O)cc1F | inconclusive: 39.8 µM [inhibitor, single point]
COC(=O)C1=C(C)NC(=O)/C1=C\c1cc(C)n(-c2ccccc2C)c1C | inconclusive: 20 µM [inhibitor, partial curve]
Cc1cc(NS(=O)(=O)c2ccc(Nc3nc(-c4sc(NC(=O)c5ccccc5)nc4C)cs3)cc2)no1 | inactive
CCOc1cc(CNc2ccccc2SC)ccc1O | inconclusive: 25.1 µM [inhibitor, single point]
c1ccc(CCc2nn3c(C4COc5ccccc5O4)nnc3s2)cc1 (stereo not drawn) | inactive
COc1ccc(-c2n[nH]c(C)c2-c2cc(OC)ccc2O)cc1 | inconclusive: 12.6 µM [inhibitor, partial curve]
COc1cccc(CNc2ccc(N3CCCCC3)cc2)c1OC | active: 25.1 µM
O=c1c2cc(Br)ccc2nc(-c2cccc(C(F)(F)F)c2)n1O | inconclusive: 10 µM [inhibitor, partial curve]
CC(C)c1ccc(N2CCN(C(=O)c3ccccc3NC(=O)/C=C\C(=O)O)CC2)cc1 | inconclusive: 31.6 µM [inhibitor, single point]
CCN(CC)S(=O)(=O)c1ccc(Nc2nc3ccccc3n3nnnc23)cc1 | inactive
CC1(C)Cc2c(C#N)c(NCC3CCCO3)nc(-c3ccco3)c2CO1 (stereo not drawn) | inconclusive: 20 µM [inhibitor, partial curve]
CCOc1cc(CNc2ccc3c(c2)OCCO3)cc(Br)c1OCC(N)=O | inconclusive: 12.6 µM [inhibitor, partial curve]
Cc1c(C(N)=O)sc2ncn(CC(=O)OC(C)C)c(=O)c12 | inconclusive: 3.98 µM [inhibitor, single point]
O=C(CSc1nnc(Cc2cccs2)n1Cc1ccco1)Nc1ccc(Br)cc1 | inconclusive: 15.8 µM [inhibitor, partial curve]
Cc1ccnc(N2CCC(C(=O)NC3CCCCCC3)CC2)n1 | inactive
Cc1cc(O)c2c(c1)C(=O)c1cc(O)cc(O)c1C2=O | inactive
O=C1c2ccccc2NC(c2cnc3ccccc3n2)N1O (stereo not drawn) | inconclusive: 31.6 µM [inhibitor, single point]

Compound | Potency
CC12CC3CC(C)(C1)CC(C(=O)NC(=S)N1CCCCC1)(C3)C2 | inconclusive: 25.1 µM [inhibitor, single point]
CCOC(=O)c1ccc(N2C(=O)C=CC2=O)cc1 | inconclusive: 1 µM [inhibitor, full curve]
Nc1c(C(=O)NCc2ccccc2)c2nc3ccccc3nc2n1-c1ccc2c(c1)OCO2 | inconclusive: 31.6 µM [inhibitor, single point]
COc1ccccc1NC(=S)NC(=O)c1ccc(-c2ccc(Cl)cc2)o1 | inconclusive: 12.6 µM [inhibitor, partial curve]
CCCSc1nnc(NC(=O)c2sc3nc(-c4cccs4)ccc3c2N)s1 | inconclusive: 25.1 µM [inhibitor, single point]
Cc1cc(C)c2c(=O)n(CC(=O)NCCCN3CCN(c4ccccc4F)CC3)sc2n1 | inconclusive: 5.01 µM [inhibitor, partial curve]
O=C(c1ccc(CN2CCOCC2)cc1)N1CCC(Cc2ccccc2)CC1 | inactive
COCCSc1ccccc1C(=O)Nc1ccncc1 | inconclusive: 15.8 µM [inhibitor, partial curve]
O=C(NCc1ccco1)C1(c2ccc(Cl)cc2)CCCC1 | inactive
N#Cc1cc2sc3nnc(-c4ccncc4)n3c2cc1C#N | inactive
CCOC(=O)c1c(-c2cccs2)csc1NC(=O)CCCC(=O)O | inactive
CCOc1ccccc1C(=O)N(CN1CCCC1=O)c1cccc(Cl)c1 | inactive
COCCNC(=O)CCc1nc(-c2ccccc2)no1 | inactive
CN(C)/C=C1\C=C(c2ccccc2)OC1=O | inconclusive: 12.6 µM [inhibitor, partial curve]
O=C(CSc1nc2ccc(S(=O)(=O)N3CCOCC3)cc2[nH]1)N1CCOCC1 | inactive
CCOC(=O)C1(C)/C(=N/Nc2ccccc2Cl)C(=O)C(=O)N1c1ccccc1 (stereo not drawn) | inconclusive: 15.8 µM [inhibitor, partial curve]
O=C(c1ccco1)N(Cc1cccs1)C1CCS(=O)(=O)C1 (stereo not drawn) | inactive
CCOC(=O)c1cnc2cc(-c3ccc(C)cc3)nn2c1-c1ccccc1 | inactive
COc1ccc(CNc2ccnc(-c3cccc(NS(C)(=O)=O)c3)n2)c(OC)c1 | inactive
COc1cc(C(=O)Nc2cc(-c3nc4cc(C)ccc4o3)ccc2C)cc(OC)c1OC | inconclusive: 15.8 µM [inhibitor, partial curve]
Cc1cccc(Oc2nc(-c3cccc([N+](=O)[O-])c3)nc3ccccc23)c1C | inactive
Cc1snc(S(=O)(=O)/C(C#N)=N\Nc2ccccc2)c1C#N | inconclusive: 15.8 µM [inhibitor, partial curve]
Cc1ccc(-n2c(C)cc(/C=N/NC(=O)c3ccc(CN4CCOCC4)cc3)c2C)cc1 | inactive
COc1cccc(N=Cc2ccc(O)cc2O)c1 | inactive
